# PubChem BioAssay AID588342 (National Center for Advancing Translational Sciences (NCATS), 2011)
# Out of some 360,000 compounds screened, about 25,000 (6.9%) were called active. This list was built around the results that the source calls inconclusive (neither active nor inactive); the mix of calls is not that of the screen. The call rests on the fitted dose curve; in most records, active means well fitted inhibition curve with a large enough effect; inconclusive means small, poorly fitted or top-dose-only effect; inactive means flat fitted curve, though single readings scatter. Potencies beside an inconclusive call are fits to weak or partial responses and may not hold up.
# Molecular target: Luciferin 4-monooxygenase (Photinus pyralis) (UniProt P08659)
# Assay: qHTS profiling assay for firefly luciferase inhibitor/activator using purifed enzyme and Km concentrations of substrates (counterscreen for miR-21 project); further: nearly all actives have a fitted effect of over 55% in size
# Details: purified FLuc, luminescence inhibition; series mostly up to 57.5 µM
# Outline: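 Biochemical qHTS of compounds, final roughly 60 µM downward over six points, against 10 nM purified firefly luciferase using Km concentrations of substrates (10 uM D-luciferin, 10 uM ATP) in Tris acetate pH 7.5 buffer; luminescence output.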
# Potency means the concentration at half of the fitted maximal effect; tags describe the fitted curve by direction and shape.
# UniProt P08659, sequence (P08659 whole entry, looked up): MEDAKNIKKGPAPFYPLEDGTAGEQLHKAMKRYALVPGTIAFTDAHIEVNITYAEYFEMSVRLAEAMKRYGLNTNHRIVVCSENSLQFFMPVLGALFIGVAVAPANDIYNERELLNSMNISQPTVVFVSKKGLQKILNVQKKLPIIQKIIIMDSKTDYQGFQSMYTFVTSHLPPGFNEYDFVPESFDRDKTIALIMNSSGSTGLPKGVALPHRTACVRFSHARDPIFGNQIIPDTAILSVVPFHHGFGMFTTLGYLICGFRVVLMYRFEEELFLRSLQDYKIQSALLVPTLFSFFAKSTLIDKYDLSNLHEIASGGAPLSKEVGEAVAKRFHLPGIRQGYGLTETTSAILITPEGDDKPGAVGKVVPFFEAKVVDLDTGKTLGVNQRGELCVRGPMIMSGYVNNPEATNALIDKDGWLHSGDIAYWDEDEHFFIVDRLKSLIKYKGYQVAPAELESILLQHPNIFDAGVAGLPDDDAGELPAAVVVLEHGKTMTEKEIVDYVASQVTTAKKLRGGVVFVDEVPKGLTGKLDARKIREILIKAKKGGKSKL
row,Structure (SMILES),Potency
1,CC(=O)N1c2ccc(S(=O)(=O)NCC3CCC(C(=O)Nc4cc(C)ccc4C)CC3)cc2CC1C (stereo not given),inactive
2,Cc1nn(CC(=O)NCc2ccccc2)c(C)c1[N+](=O)[O-],inactive
3,COC(=O)COc1ccc2c(c1C)O/C(=C\c1ccco1)C2=O,active: 2.13 µM
4,CCOc1ccc(C(=O)N(CC)CC(=O)Nc2ccc3c(c2)OCCO3)cc1,"inconclusive: 19 µM [inhibitor, partial curve]"
5,CC(=O)c1sc(-c2ccccc2Cl)nc1C,"inconclusive: 37.9 µM [inhibitor, partial curve, poor fit]"
6,CCOc1ccc(C(=O)Nc2nc3ccccc3[nH]2)cc1OCC,"inconclusive: 26.9 µM [inhibitor, partial curve]"
7,COc1ccccc1-c1csc(NC(=O)c2ccc(N3C(=O)CCC3=O)cc2)n1,"inconclusive: 3.01 µM [inhibitor, partial curve, poor fit]"
8,CCc1ccc(N2C(=O)c3sc4nnc(-c5ccccc5)c(=O)n4c3C2=O)cc1,active: 19 µM
9,Cc1ccc(CN(C)C(=O)CN2C(=O)NC3(CCCC3)C2=O)o1,"inconclusive: 30.1 µM [inhibitor, partial curve, poor fit]"
10,O=C(NNS(=O)(=O)c1ccc(Cl)cc1)c1cnn(-c2ccccc2)c1-n1cccc1,inactive
11,Clc1ccc(-c2ccc(/C=N/Nc3nncc(-c4ccccc4)n3)o2)cc1,"inconclusive: 21.3 µM [inhibitor, single point]"
12,COc1cccc(C(=O)NCC(=O)n2nc(C)cc2C)c1,"inconclusive: 23.9 µM [inhibitor, partial curve, poor fit]"
13,Cc1cc(NC(=O)c2ccc(C)c(C)c2)no1,active: 23.9 µM
14,O=c1c(Cl)c(NCc2ccccc2Cl)cnn1C12CC3CC(CC(C3)C1)C2,active: 12 µM
15,O=C1/C(=C/c2ccc(F)cc2)SC(=S)N1CCCC(=O)N1CCCCC1CCO (stereo not given),inactive
16,CN1CCc2nc3sc(C(=O)C45CC6CC(CC(C6)C4)C5)c(N)c3cc2C1,"inconclusive: 12 µM [inhibitor, partial curve, poor fit]"
17,Nc1cc(=O)[nH]c(SCC(=O)c2ccc(F)cc2)n1,inactive
18,CC(=O)N1N=C(c2ccc(C)o2)CC1c1ccc(Br)cc1 (stereo not given),"inconclusive: 16.9 µM [inhibitor, partial curve]"
19,CN(Cc1ccccc1)Cc1nc2c(c(=O)n(C)c(=O)n2C)n1Cc1ccccc1Cl,inactive
20,O=C(Nc1cccc(C(=O)NC2CCCC2)c1)c1ccccc1,inactive
21,COc1ccc(O)c(/C=N/c2nc3ccccc3n2C)c1,"inconclusive: 13.5 µM [inhibitor, partial curve, poor fit]"
22,CC(C)(C)C1CCc2c(sc(NC(=O)c3ccc(Cl)cc3)c2C(=O)NCc2ccco2)C1 (stereo not given),inactive
23,CCC(=O)N1c2ccccc2[C@@H](N(C(C)=O)c2ccccc2)C[C@H]1C,inactive
24,COC(=O)c1cccc(NC(=O)/C=C/c2cccc([N+](=O)[O-])c2)c1,"inconclusive: 7.57 µM [inhibitor, partial curve]"

row,Structure (SMILES),Potency
1,Cc1cc(C)c(S(=O)(=O)Nc2ccc(-c3ccc(N4CCCCCC4)nn3)cc2)c(C)c1,"inconclusive: 19 µM [inhibitor, partial curve, poor fit]"
2,Cn1ccc(C(=O)N/N=C/c2ccncc2)n1,inactive
3,O=C(C#Cc1ccccc1)c1ccc([N+](=O)[O-])cc1,"inconclusive: 8.49 µM [inhibitor, partial curve]"
4,CC(C)(C)NC(=O)Cn1nnc(-c2ccccc2Cl)n1,"inconclusive: 30.1 µM [inhibitor, partial curve]"
5,COC(=O)c1ccc(OCC2c3cc(OC)c(OC)cc3CCN2C(=O)Cc2ccccc2)cc1 (stereo not given),inactive
6,Cn1cnnc1SCC(=O)Nc1ccc(C#N)cc1,inactive
7,CC(C)Oc1cccc(C(=O)C2CCCN(S(=O)(=O)C(C)C)C2)c1 (stereo not given),"inconclusive: 26.9 µM [inhibitor, single point]"
8,CC1CCCN(c2c([N+](=O)[O-])cc(C(=O)O)cc2[N+](=O)[O-])C1 (stereo not given),"inconclusive: 21.3 µM [inhibitor, partial curve]"
9,Cc1ccc(S(=O)(=O)CCC(=O)N(Cc2nnc(-c3ccc(Cl)cc3)o2)C2CC2)cc1,"inconclusive: 16.9 µM [inhibitor, partial curve]"
10,CCCc1cnc(N2CCN(C(=O)c3ccc(OC)cc3)CC2)nc1,inactive
11,Cc1ccc(OCCOc2cccc3ccc(C)nc23)c([N+](=O)[O-])c1,active: 21.3 µM
12,CC(C)CCN1C(=O)c2ccc(C(=O)Nc3ccccn3)cc2C1=O,"inconclusive: 26.9 µM [inhibitor, partial curve, poor fit]"
13,O=C(NCCN1CCOCC1)c1cc(-c2ccc(F)cc2)nc2ccccc12,"inconclusive: 23.9 µM [inhibitor, single point]"
14,CN1C(=O)/C(=C/C=C2/CCCN2C)N(C)C1=S,"inconclusive: 26.9 µM [inhibitor, single point]"
15,NC(=O)Nc1ccc2c(c1)OCCO2,active: 21.3 µM
16,Cc1ccc(C(=O)Nc2ccccc2C(=O)N2CCCCC2C)cc1 (stereo not given),"inconclusive: 37.9 µM [inhibitor, partial curve, poor fit]"
17,CC1(C)Cc2c(sc3nc(C4CCCCC4)n(N)c(=O)c23)CO1,"inconclusive: 42.6 µM [inhibitor, partial curve, poor fit]"
18,N#Cc1nc(-c2ccccc2F)oc1NCc1cccc2c1OCO2,"inconclusive: 26.9 µM [inhibitor, partial curve, poor fit]"
19,Cn1c(=O)c2c(nc(CN3CCc4ccccc4C3)n2Cc2ccccc2)n(C)c1=O,inactive
20,CC(C)Oc1ccc(CNC(=O)c2cccc(NC(=O)N3CCSc4ncccc43)c2)cc1,"inconclusive: 21.3 µM [inhibitor, partial curve, poor fit]"
21,O=C(c1ccc(-c2cc(Cl)ccc2Cl)o1)N1CCOCC1,"inconclusive: 26.9 µM [inhibitor, single point]"
22,CC(C(=O)Nc1ccccc1C(=O)O)n1c(C(F)(F)F)nc2ccccc21 (stereo not given),"inconclusive: 30.1 µM [inhibitor, partial curve, poor fit]"
23,NC(=O)c1cc([N+](=O)[O-])ccc1NCc1ccc(N)cc1,inactive
24,COc1ccc(NC(=O)c2cc(CN3CCCC3)on2)cc1Cl,"inconclusive: 21.3 µM [inhibitor, single point]"

row,Structure (SMILES),Potency
1,O=[N+]([O-])c1cccc(-c2ccc(SCc3cccnc3)nn2)c1,"inconclusive: 19 µM [inhibitor, partial curve]"
2,O=C1c2cccc3cccc(c23)C(=O)N1OS(=O)(=O)c1ccc(Cl)cc1,"inconclusive: 26.9 µM [inhibitor, single point]"
3,Cc1nn(C)c(C)c1/C=C/C(=O)O,inactive
4,O=C(Nc1cccnc1)c1cc(-c2cccc(Cl)c2)on1,inactive
5,Cc1c(C(=O)Nc2nccs2)oc2c(Cl)cccc12,inactive
6,CC(C)(C)NC(=O)C(c1ccncc1)N(Cc1ccc(F)cc1)C(=O)c1ccc(-c2ccccc2)[nH]1 (stereo not given),inactive
7,Clc1ss/c(=N\c2ccccn2)c1Cl,"inconclusive: 21.3 µM [inhibitor, partial curve, poor fit]"
8,C=CCOc1ccc(/C=N/O)cc1Cl,"inconclusive: 23.9 µM [inhibitor, single point]"
9,O=C(O)c1cccc(Nc2ncnc3scc(-c4ccccc4)c23)c1,"inconclusive: 19 µM [inhibitor, partial curve]"
10,O=C(O)c1ccccc1C(=O)c1ccc(Oc2ccccc2)cc1,"inconclusive: 30.1 µM [inhibitor, partial curve, poor fit]"
11,CCn1nc(C)cc1C(=O)OCC(=O)c1ccc(Cl)cc1,"inconclusive: 26.9 µM [inhibitor, single point]"
12,CCc1ccc(S(=O)(=O)/N=C2\C=C(Nc3cccc(C(=O)O)c3)C(=O)c3ccccc32)cc1,"inconclusive: 37.9 µM [inhibitor, single point]"
13,CCN(CC)C(=O)CSc1nc2ccc(NC(=O)CSc3nnc(COc4ccccc4C)n3C)cc2s1,"inconclusive: 21.3 µM [inhibitor, partial curve, poor fit]"
14,COc1ccc(S(=O)(=O)N2CCOCC2)cc1NC(=O)CCCOc1ccc(Cl)cc1C,"inconclusive: 1.69 µM [inhibitor, full curve, poor fit]"
15,COC(=O)c1coc(-c2ccc(OC)cc2)c1C(=O)OC,"inconclusive: 21.3 µM [inhibitor, partial curve]"
16,CC1C/C(=C/c2cccn2C)C(=O)/C(=C/c2cccn2C)C1 (stereo not given),"inconclusive: 23.9 µM [inhibitor, single point]"
17,Cc1cc(C)cc(N(CCC(=O)Nc2nnc(C)s2)S(=O)(=O)c2ccc(Cl)cc2)c1,inactive
18,CCCCOc1cccc(C(=O)N(Cc2cccs2)c2ccc(OC)cc2)c1,inactive
19,COc1ccc(C(=O)NC(CC(=O)O)c2cc([N+](=O)[O-])ccc2Cl)c(SC)c1 (stereo not given),"inconclusive: 13.5 µM [inhibitor, partial curve]"
20,CC(Sc1nc(N)c2c3c(sc2n1)CSC(C)(C)C3)C(=O)Nc1ccccc1 (stereo not given),"inconclusive: 10.7 µM [inhibitor, partial curve]"
21,CC(C)(C)c1ccc(-c2nc(SCC(=O)Nc3ccc(Cl)cc3)[nH]c(=O)c2C#N)cc1,"inconclusive: 30.1 µM [inhibitor, partial curve, poor fit]"
22,O=C(OCc1nnc(-c2ccccc2)o1)C12CC3CC(CC(Br)(C3)C1)C2,"inconclusive: 37.9 µM [inhibitor, single point]"
